Test results reported in ChEMBL document CHEMBL1157539, “Thousands of chemical starting points for antimalarial lead identification” (Nature, 2010).
Whole data set: some 13,000 compounds, median “IFI” near 4, cut for the highest 2% near 17. The list shows a part of the results.

experiment: GSK_TCMDC: Inhibition Frequency Index (IFI). The number of non-kinase HTS assays where a compound showed > 50 % inhibition, expressed as a percentage of the number of such assays in which the compound was tested (-0 is zero); format: functional

| Compound | IFI [%] |
| --- | --- |
| c1cc2[nH]c(CCCCCc3nc4cc(C5=N[C@@H]6CCCC[C@@H]6N5)ccc4[nH]3)nc2cc1C1=N[C@@H]2CCCC[C@@H]2N1 | 1.45 |
| NC(=O)COc1cccc2c1CCN(CCN1CCC(NC(=O)c3ccc(-c4ccc(Cl)cc4)cc3)CC1)C2 | 6.2 |
| COC[C@H]1CCCN1Cc1ccc(-c2ccc(-c3nc4ccccc4[nH]3)s2)cc1 | 0.91 |
| O=C(C=Cc1ccc(Cl)c(Cl)c1)NCCCCCN1CCC(CCNC(=O)c2cccc3ccccc23)CC1 | 3.82 |
| Cn1nc(-c2cccc(CNC3CCc4ccccc43)c2)c2cnc(NC3CCCC3)nc21 (stereo not given) | 3.85 |
| CC1(C)NC(N)=NC(=N)N1OCCCSc1ccccc1 | 2.26 |
| Cc1nc2c(s1)c(=O)cc(CCc1cccc(F)c1F)n2CC(=O)N(Cc1ccc(-c2ccc(C(F)(F)F)cc2)cc1)C1CCN(C(C)C)CC1 | 10.3 |
| CCc1ccc(NC(=O)c2ccc(CN3CCCN(CC4CCCCC4)CC3)cc2)cc1 | 10.7 |
| CN1CCC(N2CCN(Cc3ccc(-c4cccc(-c5nc6cc(F)ccc6[nH]5)c4)cc3)CC2)CC1 | 6.94 |
| CC[C@H](NC(=O)c1c(CC2CCN(CC(C)=O)CC2)c(-c2ccccc2)nc2ccccc12)c1ccccc1 | 2.17 |
| CCc1ccc(C(=O)NC(=O)c2ccccc2O)cc1 | 7.28 |
| Cc1ccc2c(OCCN3CCC(Cc4cc5c(cc4F)OCC(=O)N5)CC3)cc(F)cc2n1 | 9.56 |
| Cc1cccc2nc(-c3ccc(-c4ccc(CN5CCOCC5)cc4)cc3)[nH]c12 | 4.23 |
| CN1CCN(CCCN(Cc2csc(-c3ccc(CNCc4ccccc4)cc3)n2)S(=O)(=O)c2ccc(F)cc2)CC1 | 4.2 |
| CC(NCCc1cccc(Cl)c1)C(O)c1ccc(OCCCCCCOc2ccc(C(O)C(C)NCCc3cccc(Cl)c3)cc2)cc1 (stereo not given) | 13 |
| Fc1cccc(Cl)c1-c1nc(NCCC(c2ccccc2)c2ccccc2)no1 | 1.49 |
| CC(C)(C)c1ccccc1OCCCON1C(=N)N=C(N)NC1(C)C | 6.29 |
| Cc1cc(C(=O)NCc2ccc(-c3c(C)noc3C)cc2)n(-c2ccc(Cl)cc2)n1 | 4.23 |
| COc1ccc2nccc([C@@H](O)CN3CCC(NCc4ccc(OC)c(NC=O)c4)CC3)c2c1 | 0 |
| COc1ccc(Cl)cc1NC(=O)Nc1cc(C)nc2ccccc12 | 12.2 |
| COc1cc2c(OC)cccc2cc1CNCCCCCCNCc1cc2cccc(OC)c2cc1OC | 7.14 |
| COc1ccc(NCCCNc2ccnc3ccccc23)cc1 | 17.5 |
| CN(C)c1ccc(-c2csc(C(=O)NCC3CCN(CC4CCCCC4)C3)c2)cc1 (stereo not given) | 8 |

| Compound | IFI [%] |
| --- | --- |
| COc1ccc(-c2ccc(CNC3Cc4ccccc4C3)cc2)cc1S(=O)(=O)NCCN1CCCC1 | 5.77 |
| Cc1ccc2c(=O)cc(CCc3cccc(F)c3F)n(CC(=O)N(Cc3ccc(-c4ccc(C(F)(F)F)cc4)cc3)C3CCN(C(C)C)CC3)c2n1 | 10.6 |
| COc1cccc2cc(C(=O)N[C@@H](CC(C)C)C(=O)N[C@H](C=NN(C)C(=O)OC(C)(C)C)Cc3ccccc3)oc12 | 9.09 |
| Cc1cccc2nc(-c3cccc(-c4ccc(NC(=O)c5ccncc5)cc4)c3)[nH]c12 | 4.42 |
| Cc1cccc(CN2CCC(C(=O)Nc3ccc(-c4nc5ccccc5[nH]4)cc3)CC2)n1 | -0 |
| COc1ccc2ncc(F)c(CCN3CCC(NCc4cc(F)c5c(c4)OCCO5)CC3)c2n1 | 5.43 |
| CNCc1ccc2nc(-c3coc(Cc4cc(Cl)ccc4OCC(C)C)n3)[nH]c2c1 | 12.2 |
| O=C(Nc1cccc(-c2ccc(-c3nc4cc(F)ccc4[nH]3)cc2)c1)c1ccoc1 | 9.01 |
| COc1cc(Cc2cnc(N)nc2N)cc(OCc2cccc(C(=O)O)c2)c1OC | 2.22 |
| COc1cc(C(C)C)ccc1N1CCN(CCCCNC(=O)c2ccc(NC(=O)c3ccc(Cl)cc3)cc2)CC1 | 4.31 |
| c1ccc(C(c2ccccc2)N2CCC(NCc3ccc(OCCCN4CCCCC4)cc3)CC2)cc1 | 10.2 |
| Cc1cc2nc(-c3ccc(/C=C/C(=O)NCc4ccc(Cl)c(Cl)c4)cc3)[nH]c2cc1C | 3.01 |
| FC(F)(F)c1cc(CNCCCNc2nc3ccncc3[nH]2)ccc1Cl | 0.77 |
| Cc1cc(N(C)C)nc(Nc2ccc(NC(=O)c3c(F)cccc3F)cc2)n1 | 2 |
| O=c1cc(NCCCCNCc2ccc(Br)c(Br)c2)[nH]c2ccccc12 | 4.44 |
| CC(C)CC(=O)Nc1cc(=O)[nH]c2nc(-c3ccccc3)nn12 | 0 |
| O=C(/C=C/c1ccc(Cl)c(Cl)c1)NCCCCCN1CCC(NC(=O)NC2CCCCC2)CC1 | 0.67 |
| COc1ccc2nccc([C@@H](O)CN3CCC(NCc4ccc5c(n4)NC(=O)CS5)C(F)C3)c2c1 (stereo not given in full) | 2.44 |
| CC(C)Cn1cc(C2CCN(CCN3CCC(CNC(=O)c4ccc(-c5ccc(C#N)cc5)cc4)CC3)CC2)c2ccccc21 | 7.34 |
| CC(C)(C)CCN1CCC(CNC(=O)c2cc(-c3cccc(Cl)c3)cs2)C1 (stereo not given) | 9.8 |
| O=C(Nc1ccc2c(c1)OCO2)NC1CCN(c2ccnc(Nc3ccc(F)cc3)n2)C1 (stereo not given) | 1.52 |
| NC1CCN(c2nc(NCCCc3ccc(O)cc3)nc(NCc3ccccc3-c3ccccc3)n2)CC1 | 13.6 |
| Cc1c(Cl)cccc1N=C(S)NN=Cc1ccccn1 | 6.3 |

| Compound | IFI [%] |
| --- | --- |
| CCCCCCNC(=O)C1Cc2c([nH]c3ccccc23)C2(CCN(CCc3ccccc3)CC2)N1 (stereo not given) | 8.63 |
| CN(C)c1ccc(CN2CCC(NC(=O)c3ccc(-c4ccccc4F)s3)CC2)cc1 | 8.77 |
| NC(=O)c1ccccc1Nc1nc(Nc2cccc(N3CCN(CCO)CC3)c2)ncc1Cl | 7.14 |
| C=CCn1c(SCC(=O)Nc2cc(Cl)ccc2Cl)nc2sc(C)cc2c1=O | 5.08 |
| CC(Nc1ccc2c(c1)CCC2)C(=O)Nc1cc(C(F)(F)F)ccc1N1CCOCC1 (stereo not given) | 2.08 |
| O=C(NC1CC1)c1ccc(N2CCCC(COc3ccccc3F)C2)nc1 (stereo not given) | 0 |
| COc1ccccc1N1CCN(C(C(=O)NCc2ccc(C)cc2)c2ccc(C)cc2)CC1 (stereo not given) | 2.07 |
| O=C(NCCCCN1CCN(c2cccc3ccccc23)CC1)c1ccc(NC(=O)c2ccc(Cl)cc2)cc1 | 5.17 |
| COc1ccc(N2CCN(CCCCNCc3ccc(NC(=O)c4cc(Cl)cc(Cl)c4)cc3)CC2)c(OC)c1 | 10.3 |
| COC(=O)c1cccc(CNCc2cccc(-c3csc(-c4nc5ccccc5[nH]4)c3)c2)c1 | 7.62 |
| CCN1C(=O)C(=NN=C(S)N2CCCC2)c2ccccc21 | 4.32 |
| O=C(NCCCCCN1CCC(c2c[nH]c3ccccc23)CC1)Nc1cccc(C(F)(F)F)c1 | 4.9 |
| O=C(NCCN1CCCCC1)c1ccc(CNC(=O)c2ccc(O)c(-c3cccc(C(F)(F)F)c3)c2)cc1 | 1.47 |
| CC(C)(C)NCc1cc(Nc2ccnc3cc(Cl)ccc23)ccc1F | 15.2 |
| CCCc1cc(C(=O)N[C@@H](Cc2ccccc2)[C@H](O)CNC(C)C)c(F)c(N2CCCC2=O)c1 | 0.72 |
| COc1ccc(-c2ccc(NC(=O)c3ccc(C#N)cc3)c(F)c2)cc1CN(C)CCN(C)C | 1.2 |
| O=C(COc1ccccc1)Nn1cnc2ccccc21 | 1.72 |
| Cc1ccccc1C(=O)Nc1cccc(-c2nc3ncccn3c2C)c1 | 1.45 |
| Cc1nc(-c2cccc(C(F)(F)F)c2)n2nc(Nc3ccc(OCCN4CCCC4)cc3)ncc12 | 5.47 |
| CCOc1ccc2c(c1)OC(c1ccccc1)(C(F)(F)F)NC2=O (stereo not given) | 1.39 |
| O=C(NOCCOc1ccccc1)c1ccccc1 | 1.52 |
| COc1ccc(C2CCN(CCCNC(=O)c3ccc(NC(=O)c4ccc(Cl)cc4)cc3)CC2)c(OC)c1 | 4.59 |
| COc1ccc(CNC(=O)c2cnc3cc(-c4c(C)noc4C)ccc3c2Nc2ccccc2C(C)(C)C)cc1 | 3.45 |

| Compound | IFI [%] |
| --- | --- |
| Nc1nc(N)c2c(ccc3c2ccn3Cc2cccc(F)c2)n1 | 10.1 |
| CC1CN(c2ccc3[nH]cc(Sc4ccc(-c5cccs5)cc4)c3c2)CC(C)N1 (stereo not given) | 13.1 |
| Cn1cncc1-c1ccc2c(-c3ccsc3)cnc(N)c2c1 | 3.7 |
| c1ccc(CN2CCC(Nc3ccc(-c4c[nH]nc4-c4ccccn4)nc3)CC2)cc1 | 2.54 |
| CCCCn1c(C(C)Oc2ccc(Cl)cc2Cl)nc2cc(S(N)(=O)=O)ccc21 (stereo not given) | 4.23 |
| O=C(NC1CCN(c2ccnc3cc(Cl)ccc23)C1)c1ccccc1F (stereo not given) | -0 |
| Cc1cccc2nc(-c3ccc(-c4ccc(CN5CCCC5CN)cc4)cc3)[nH]c12 (stereo not given) | 7 |
| C=CCOC(=O)N1CCC(CNCc2ccc(-c3cccc(-c4nc5ccccc5[nH]4)c3)cc2)C1 (stereo not given) | 3.88 |
| Cc1ccccc1Nc1cc(Nc2ccccc2C)c2ccccc2n1 | 16.6 |
| COc1ccc(C2N=C(N)N=C(N)N2OCc2ccccc2)cc1OC (stereo not given) | 0.73 |
| Cc1nc2ccccc2c(O)c1[N+](=O)[O-] | 0 |
| COc1ccc(-c2nc3cc4ccccc4nc3[nH]2)c(OCC(O)CNC(C)C)c1 (stereo not given) | 1.57 |
| CCN(CCCNc1nc(=S)[nH]c2cc(OC)c(OC)cc12)c1ccccc1 | 3.36 |
| CN1CCN(Cc2cccc(-c3cc4nccc(Nc5ccc(Oc6ccccc6)cc5)c4cc3Cl)c2)CC1 | 5.76 |
| Cc1cc(-c2cccc3c(C(=O)N4CCc5cc6nccc(N7CCCN(C)CC7)c6cc54)cccc23)cc(C)n1 | 4.93 |
| Cc1nn(-c2ccccc2)nc1C(=O)NC1CCN(CCNC(=O)c2ccc(Cl)c(Cl)c2)CC1 | 2.04 |
| O=C(Cc1ccc(-c2ccccc2)cc1)N[C@H]1CCN(Cc2ccc(OCCCN3CCCCC3)cc2)C1 | 7.53 |
| Cc1ccccc1C1CCN(C2CCC(NC(=O)c3cc4cc(Cl)ccc4o3)CC2)CC1 (stereo not given) | 6.78 |
| Cc1noc(C)c1-c1ccc2c(Nc3ccccc3N3CCOCC3)c(C(=O)NCc3ccccc3)cnc2c1 | 12.8 |
| Clc1cc(Nc2ccnc3ccc(Br)cc23)ccc1Oc1ccc2ccccc2c1Cl | 0.79 |
| CC(=O)c1cccc(NC(=O)N2CCCN(CCCCCNC(=O)/C=C/c3ccc(Cl)c(Cl)c3)CC2)c1 | 2.7 |
